pIC50: −log10 of the molar value. The IC50 comes from the fitted curve, where viability falls to half of the control; a limit (>, <) means that the fit lies beyond the doses tested. AUC sums up the same curve from the lowest dose to the 256-fold higher top dose; values near 1 show little effect. For some of these results: A top dose marked as inferred is not printed in the source and was worked back from the curve model.
Key:
Assay in all cases: Viability of human cancer cell lines after 72 h of drug (GDSC screen)
JW-7-52-1 = compound: CCC(=O)N1CCN(c2ccc(-n3c(=O)ccc4cnc5ccc(-c6cnc7ccccc7c6)cc5c43)cc2C(F)(F)F)CC1 [JW-7-52-1]; conditions: top dose 1.2 µM; top dose inferred
Experimental: (§1)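 Human cancer cell lines in 384-well plates, medium with 10% serum, drug for 72 h over a 256-fold dose range (nine 2-fold or five 4-fold steps up to the top dose). Adherent lines were fixed and stained with the nucleic acid dye Syto60, suspension lines read with resazurin; signal relative to control wells, capped at 0 and 100%. One two-parameter sigmoid per drug and line, fitted in a mixed model over all curves with the slope shared within a line.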

XL-880 = compound: COc1cc2c(Oc3ccc(NC(=O)C4(C(=O)Nc5ccc(F)cc5)CC4)cc3F)ccnc2cc1OCCCN1CCOCC1 [XL-880]; conditions: top dose 5.12 µM; top dose inferred
Experimental: as §1

Rapamycin = compound: CO[C@H]1C[C@@H]2CC[C@@H](C)[C@@](O)(O2)C(=O)C(=O)N2CCCC[C@H]2C(=O)O[C@H]([C@H](C)C[C@@H]2CC[C@@H](O)[C@H](OC)C2)CC(=O)[C@H](C)/C=C(\C)[C@@H](O)[C@@H](OC)C(=O)[C@H](C)C[C@H](C)/C=C/C=C/C=C/1C [Rapamycin]; conditions: top dose 0.1 µM; top dose inferred
Experimental: as §1

IPA-3 = compound: Oc1ccc2ccccc2c1SSc1c(O)ccc2ccccc12 [IPA-3]; conditions: top dose 32 µM; top dose inferred
Experimental: as §1

Z-LLNle-CHO = compound: CCCC[C@@H](C=O)NC(=O)[C@H](CC(C)C)NC(=O)[C@H](CC(C)C)NC(=O)OCc1ccccc1 [Z-LLNle-CHO]; conditions: top dose 2.56 µM; top dose inferred
Experimental: as §1

Tubastatin A = compound: CN1CCc2c(c3ccccc3n2Cc2ccc(C(=O)NO)cc2)C1 [Tubastatin A]; conditions: top dose 20 µM
Experimental: as §1

CI-1040 = compound: O=C(NOCC1CC1)c1ccc(F)c(F)c1Nc1ccc(I)cc1Cl [CI-1040]; conditions: top dose 10 µM; top dose inferred
Experimental: as §1

Temozolomide = compound: Cn1nnc2c(C(N)=O)ncn2c1=O [Temozolomide]; conditions: top dose 30 µM
Experimental: as §1

Row | Cell Line | AUC (JW-7-52-1) | pIC50 (JW-7-52-1) | AUC (XL-880) | pIC50 (XL-880) | AUC (Rapamycin) | pIC50 (Rapamycin) | AUC (IPA-3) | pIC50 (IPA-3) | AUC (Z-LLNle-CHO) | pIC50 (Z-LLNle-CHO) | AUC (Tubastatin A) | pIC50 (Tubastatin A) | AUC (CI-1040) | pIC50 (CI-1040) | AUC (Temozolomide) | pIC50 (Temozolomide)
1 | BC-3 (B-cell lymphoma, suspension) | 0.553 | 6.99 | 0.675 | 6.03 | 0.796 | 7.38 | 0.976 | < 4.49 | 0.879 | 5.67 | 0.888 | 4.74 | – | – | – | –
2 | EW-12 (Ewing sarcoma, suspension) | 0.976 | < 5.92 | – | – | 0.717 | 7.37 | – | – | 0.975 | < 5.59 | – | – | – | – | – | –
3 | NCI-H510A (small cell lung carcinoma, semi-adherent) | 0.844 | 6.12 | 0.665 | 6.06 | 0.939 | < 7.00 | 0.96 | < 4.49 | 0.875 | 5.67 | 0.803 | 5.05 | 0.883 | 5.04 | – | –
4 | MY-M12 (leukaemia, suspension) | 0.173 | 8.19 | 0.384 | 6.83 | 0.201 | 9.15 | 0.741 | 4.96 | 0.645 | 6.37 | 0.672 | 5.39 | 0.773 | 5.36 | – | –
5 | MZ7-mel (melanoma, adherent) | 0.396 | 7.41 | 0.595 | 6.23 | 0.917 | < 7.00 | 0.972 | < 4.49 | 0.851 | 5.68 | 0.868 | 4.71 | – | – | 0.982 | < 4.52
6 | LC-2-ad (lung adenocarcinoma, adherent) | 0.256 | 7.83 | 0.401 | 6.77 | 0.172 | 9.21 | 0.81 | 4.76 | 0.762 | 6.03 | 0.853 | 4.79 | – | – | 0.983 | < 4.52
7 | CAL-148 (breast, suspension) | 0.581 | 6.91 | 0.768 | 5.75 | 0.945 | < 7.00 | 0.983 | < 4.49 | 0.957 | < 5.59 | 0.94 | < 4.70 | – | – | – | –
8 | NCI-H1963 (small cell lung carcinoma, suspension) | 0.808 | 6.28 | 0.841 | 5.53 | 0.924 | < 7.00 | 0.848 | 4.71 | 0.862 | 5.76 | 0.953 | < 4.70 | 0.953 | < 5.00 | – | –
9 | HCC-33 (small cell lung carcinoma, adherent) | 0.926 | < 5.92 | 0.793 | 5.63 | 0.975 | < 7.00 | 0.742 | 5.00 | 0.929 | < 5.59 | 0.874 | 4.70 | – | – | – | –
10 | JAR (urogenital system, adherent) | 0.576 | 6.92 | 0.829 | 5.51 | 0.925 | < 7.00 | 0.987 | < 4.49 | 0.884 | < 5.59 | 0.988 | < 4.70 | – | – | 0.956 | < 4.52
11 | NCI-H64 (small cell lung carcinoma, suspension) | 0.753 | 6.50 | 0.809 | 5.73 | 0.988 | < 7.00 | 0.817 | 4.91 | 0.815 | 6.01 | 0.961 | < 4.70 | 0.985 | < 5.00 | – | –
12 | KP-N-RT-BM-1 (neuroblastoma, semi-adherent) | 0.842 | < 5.92 | – | – | 0.898 | < 7.00 | – | – | 0.883 | < 5.59 | – | – | – | – | – | –
13 | KMS-12-BM (myeloma, suspension) | 0.701 | 6.61 | 0.794 | 5.72 | 0.922 | < 7.00 | 0.943 | < 4.49 | 0.814 | 5.96 | 0.818 | 5.05 | 0.881 | 5.13 | – | –
14 | KASUMI-1 (acute myeloid leukaemia, suspension) | 0.895 | < 5.92 | – | – | 0.965 | < 7.00 | – | – | 0.915 | < 5.59 | – | – | 0.689 | 5.67 | 0.98 | < 4.52
15 | KP-N-YS (neuroblastoma, adherent) | 0.799 | 6.17 | 0.665 | 6.00 | 0.982 | < 7.00 | 0.806 | 4.72 | 0.809 | 5.80 | 0.889 | < 4.70 | – | – | – | –
16 | RL95-2 (endometrium, adherent) | 0.193 | 8.04 | 0.505 | 6.48 | 0.142 | 9.32 | – | – | 0.788 | 5.95 | 0.981 | < 4.70 | 0.507 | 6.18 | 0.982 | < 4.52
17 | THP-1 (acute myeloid leukaemia, suspension) | 0.917 | < 5.92 | 0.657 | 6.08 | 0.986 | < 7.00 | 0.99 | < 4.49 | 0.931 | < 5.59 | – | – | 0.937 | < 5.00 | – | –
18 | NCI-H2196 (small cell lung carcinoma, adherent) | 0.758 | 6.36 | 0.607 | 6.19 | 0.909 | < 7.00 | 0.961 | < 4.49 | 0.947 | < 5.59 | 0.961 | < 4.70 | – | – | – | –
19 | SCC-3 (B-cell lymphoma, suspension) | 0.603 | 6.88 | 0.62 | 6.20 | 0.957 | < 7.00 | 0.993 | < 4.49 | 0.763 | 6.16 | 0.926 | 4.80 | – | – | – | –

Reference: the supplement of paper PMC4967469
